{"source": "paper PMC4336329", "about": "(PLoS ONE, 2015)", "note": "The whole screen tested about 310,000 compounds, of which about 14,000 (4.5%) showed an effect of 50% or more. The effect is printed as a negative number. This is one part of the list.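 Further: peak tail current of the secondary pulse compared with the same well before compound.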", "data": [{"molecular_target": "human ether-à-go-go-related gene (hERG) potassium channel (human, UniProt Q12809)", "sequence (Q12809 whole entry, looked up)": "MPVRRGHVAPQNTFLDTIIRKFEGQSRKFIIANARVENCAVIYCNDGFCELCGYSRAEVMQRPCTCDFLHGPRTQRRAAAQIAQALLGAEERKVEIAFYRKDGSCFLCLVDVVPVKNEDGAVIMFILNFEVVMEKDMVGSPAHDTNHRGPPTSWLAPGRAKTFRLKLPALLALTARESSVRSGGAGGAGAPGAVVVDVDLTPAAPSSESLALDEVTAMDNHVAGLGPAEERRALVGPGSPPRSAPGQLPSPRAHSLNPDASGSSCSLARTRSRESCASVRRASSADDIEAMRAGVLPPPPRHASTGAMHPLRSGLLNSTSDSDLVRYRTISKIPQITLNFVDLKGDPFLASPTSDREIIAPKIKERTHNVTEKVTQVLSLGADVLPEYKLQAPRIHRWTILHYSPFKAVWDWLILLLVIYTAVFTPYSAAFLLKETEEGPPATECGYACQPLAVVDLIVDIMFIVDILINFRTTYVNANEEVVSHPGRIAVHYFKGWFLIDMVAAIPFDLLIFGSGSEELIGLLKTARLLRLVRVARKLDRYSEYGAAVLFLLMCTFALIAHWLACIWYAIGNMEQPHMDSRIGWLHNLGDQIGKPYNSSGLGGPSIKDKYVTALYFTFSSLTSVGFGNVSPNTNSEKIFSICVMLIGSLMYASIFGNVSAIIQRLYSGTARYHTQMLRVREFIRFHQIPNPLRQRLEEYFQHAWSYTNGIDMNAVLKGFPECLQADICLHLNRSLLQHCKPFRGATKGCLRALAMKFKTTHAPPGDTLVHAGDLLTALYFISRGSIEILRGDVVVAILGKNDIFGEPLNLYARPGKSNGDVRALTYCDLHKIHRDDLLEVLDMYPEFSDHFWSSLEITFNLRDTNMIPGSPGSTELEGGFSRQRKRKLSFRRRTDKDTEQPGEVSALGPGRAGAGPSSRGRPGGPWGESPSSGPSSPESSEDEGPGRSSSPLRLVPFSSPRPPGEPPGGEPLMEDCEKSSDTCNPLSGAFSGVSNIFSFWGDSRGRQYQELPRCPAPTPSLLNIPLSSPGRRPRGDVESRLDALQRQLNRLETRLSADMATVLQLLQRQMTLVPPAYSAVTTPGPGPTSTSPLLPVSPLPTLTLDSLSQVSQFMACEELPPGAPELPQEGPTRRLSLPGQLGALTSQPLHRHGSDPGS", "test": "primary screen, population patch clamp on CHO cells stably expressing hERG", "units": {"hERG current change (%, negative = inhibition) at 10uM": "%"}, "values": [{"smiles": "Cc1nc(NC2CCCCC2)c2nnn(Cc3ccccc3Cl)c2n1", "hERG current change (%, negative = inhibition) at 10uM": 8.09}, {"smiles": "CCn1c(Cn2nnc(-c3ccccc3)n2)nnc1SCC(=O)N1CCOCC1", "hERG current change (%, negative = inhibition) at 10uM": -8.91}, {"smiles": "COc1ccc(/C=N/NC(=O)CSc2ccccn2)cc1OC", "hERG current change (%, negative = inhibition) at 10uM": 2.42}, {"smiles": "Cc1cc(NC(=O)C2COc3ccccc3O2)no1", "note": "(stereo not drawn)", "hERG current change (%, negative = inhibition) at 10uM": -0.48}, {"smiles": "Cc1ccc(S(=O)(=O)N2CCN(C(=O)COc3ccc(NC(=O)c4ccco4)cc3)CC2)cc1", "hERG current change (%, negative = inhibition) at 10uM": 8.3}, {"smiles": "Cc1ccc(C)c(/C(O)=C2\\C(=O)C(=O)N(CCCn3ccnc3)C2c2cccnc2)c1", "note": "(stereo not drawn)", "hERG current change (%, negative = inhibition) at 10uM": 3.99}, {"smiles": "O=C(CCNS(=O)(=O)c1cccs1)Nc1nccs1", "hERG current change (%, negative = inhibition) at 10uM": 14.5}, {"smiles": "CC(=O)Nc1ccccc1-c1nnn(CC(=O)Nc2ccc3c(c2)OCCO3)n1", "hERG current change (%, negative = inhibition) at 10uM": 13.4}, {"smiles": "O=C(Cc1ccccc1)NC1CCN(C(=O)c2ccc([N+](=O)[O-])cc2)CC1", "hERG current change (%, negative = inhibition) at 10uM": -47.7}, {"smiles": "COC(=O)c1cc(C)sc1NC(=O)CN1CCN(C(=O)c2ccco2)CC1", "hERG current change (%, negative = inhibition) at 10uM": -30}, {"smiles": "Cc1onc(-c2c(Cl)cccc2Cl)c1C(=O)NCc1ccccn1", "hERG current change (%, negative = inhibition) at 10uM": 2.34}, {"smiles": "CCOC(=O)N1CCN(c2cc(C)c([N+](=O)[O-])cc2F)CC1", "hERG current change (%, negative = inhibition) at 10uM": -8.16}, {"smiles": "Cn1nccc1C(=O)N1CCCC(N2CCN(c3cccc(C(F)(F)F)c3)CC2)C1", "note": "(stereo not drawn)", "hERG current change (%, negative = inhibition) at 10uM": -20.3}, {"smiles": "CCCN1CCN(CCCNC(=O)c2cc3c(s2)-c2c(C)cccc2OC3)CC1", "hERG current change (%, negative = inhibition) at 10uM": -85.2}, {"smiles": "O=C(COC(=O)c1ccc([N+](=O)[O-])cc1)Nc1ccc(Cl)cn1", "hERG current change (%, negative = inhibition) at 10uM": -7.1}, {"smiles": "CCCCNC(=O)NS(=O)(=O)c1cnccc1Sc1ccc(Cl)cc1", "hERG current change (%, negative = inhibition) at 10uM": 12.1}, {"smiles": "N#Cc1c(-c2ccccc2)nc(SCc2ccc([N+](=O)[O-])cc2)[nH]c1=O", "hERG current change (%, negative = inhibition) at 10uM": 5.07}, {"smiles": "CCOC(=O)Cn1c(CN(Cc2ccccc2)Cc2ccccc2)nc2c1c(=O)[nH]c(=O)n2C", "hERG current change (%, negative = inhibition) at 10uM": -8.22}, {"smiles": "Cc1nnc(SCC(=O)N2c3ccccc3CC2C)s1", "note": "(stereo not drawn)", "hERG current change (%, negative = inhibition) at 10uM": -54.2}, {"smiles": "O=C(c1ccco1)N1CCCC(c2nc3c(nnn3Cc3cccc(Cl)c3)c(=O)[nH]2)C1", "note": "(stereo not drawn)", "hERG current change (%, negative = inhibition) at 10uM": -54.5}, {"smiles": "O=C(NCCOc1ccccc1)c1ccccc1NC(=O)C1CCCO1", "note": "(stereo not drawn)", "hERG current change (%, negative = inhibition) at 10uM": 3.82}, {"smiles": "CC(=O)c1ccc(C(=O)NC2CC(C)(C)Cc3c2cnn3-c2ccccc2)cc1", "note": "(stereo not drawn)", "hERG current change (%, negative = inhibition) at 10uM": -21.8}, {"smiles": "COc1cc2ncc(C(=O)c3ccccc3)c(N3CCN(Cc4ccccc4)CC3)c2cc1OC", "hERG current change (%, negative = inhibition) at 10uM": -12.9}, {"smiles": "COc1ccccc1CN(C)CC(=O)Nc1ccccc1-c1ccccc1", "hERG current change (%, negative = inhibition) at 10uM": 17.4}, {"smiles": "CCOc1c(O)ccc(/C=C2\\SC(=S)NC2=O)c1[N+](=O)[O-]", "hERG current change (%, negative = inhibition) at 10uM": 15}, {"smiles": "CCC(=O)Nc1ccc(NC(=S)NC(=O)/C=C/c2ccco2)cc1", "hERG current change (%, negative = inhibition) at 10uM": 2.85}, {"smiles": "CCOC(=O)c1c(NC(=O)c2c(N)n(CCCOC)c3nc4ccccc4nc23)sc2c1CCCC2", "hERG current change (%, negative = inhibition) at 10uM": -0.19}, {"smiles": "CN1CCN(C(=O)C23CC4CC(C2)CC(c2ccccc2)(C4)C3)CC1.Cl", "hERG current change (%, negative = inhibition) at 10uM": 4.85}, {"smiles": "CCOc1ccc(N(CC)C(=O)CCS(=O)(=O)c2cccc3nonc23)cc1", "hERG current change (%, negative = inhibition) at 10uM": -4.92}, {"smiles": "CN(CC(=O)Nc1ccc(F)cc1)C(=O)c1cc([N+](=O)[O-])ccc1N1CCOCC1", "hERG current change (%, negative = inhibition) at 10uM": -24.9}, {"smiles": "O=C(Nc1cccnc1)C1CCN(S(=O)(=O)c2cccc3nonc23)CC1", "hERG current change (%, negative = inhibition) at 10uM": -0.862}, {"smiles": "CC(C)NS(=O)(=O)c1ccc(OCC(=O)N2CCCC2)cc1", "hERG current change (%, negative = inhibition) at 10uM": -12.9}, {"smiles": "Cc1[nH]nc2c1C(c1ccsc1C)C(C#N)=C(N)O2", "note": "(stereo not drawn)", "hERG current change (%, negative = inhibition) at 10uM": 2.25}, {"smiles": "COc1cc(NC(=S)NC(=O)c2ccccc2F)ccc1NC(=O)c1cccs1", "hERG current change (%, negative = inhibition) at 10uM": 1.66}, {"smiles": "Cl.O=C(CCc1ccc(S(=O)(=O)N2CCOCC2)cc1)N1CCN(Cc2ccc3c(c2)OCO3)CC1", "hERG current change (%, negative = inhibition) at 10uM": -34.3}, {"smiles": "Cc1cc([N+](=O)[O-])cc([N+](=O)[O-])c1NCC(C)C", "hERG current change (%, negative = inhibition) at 10uM": -18.7}, {"smiles": "CCOc1ccc(N(C)S(=O)(=O)c2csc(C(N)=O)c2)cc1", "hERG current change (%, negative = inhibition) at 10uM": 8.51}, {"smiles": "O=C(C(c1ccccc1)c1ccccc1)N1CCN(Cc2ccco2)CC1.O=C(O)C(=O)O", "hERG current change (%, negative = inhibition) at 10uM": -9.93}, {"smiles": "CC(=O)NS(=O)(=O)c1ccc(NC(=O)/C=C/c2ccccc2Cl)cc1", "hERG current change (%, negative = inhibition) at 10uM": 8.86}, {"smiles": "COc1ccccc1C(=O)NC(CCSC)C(=O)OC(C)C(N)=O", "note": "(stereo not drawn)", "hERG current change (%, negative = inhibition) at 10uM": 10.8}, {"smiles": "O=C(Cn1c(=O)oc2ccccc21)c1ccccc1", "hERG current change (%, negative = inhibition) at 10uM": -5.11}, {"smiles": "Cc1ccc(S(=O)(=O)NCC(=O)N(CC(=O)NCc2ccccc2)CC2CCCO2)cc1", "note": "(stereo not drawn)", "hERG current change (%, negative = inhibition) at 10uM": -6.78}, {"smiles": "Cc1cc(C)c(S(=O)(=O)N2CCOC2CNC(=O)C(=O)NCCN2CCOCC2)c(C)c1", "note": "(stereo not drawn)", "hERG current change (%, negative = inhibition) at 10uM": 9.75}, {"smiles": "O=C(Cc1ccccc1)CC1(O)C(=O)Nc2ccccc21", "note": "(stereo not drawn)", "hERG current change (%, negative = inhibition) at 10uM": 12}, {"smiles": "Cc1ccc(C)c(N2CCN(C(=O)CCS(=O)(=O)c3ccc4c(c3)oc(=O)n4C)CC2)c1", "hERG current change (%, negative = inhibition) at 10uM": -48.6}, {"smiles": "Cc1ccc(-c2nc(CN3CCCCC3)cc(CN3CCCCC3)c2O)cc1.Cl", "hERG current change (%, negative = inhibition) at 10uM": -62.5}, {"smiles": "Cc1nn(C)c(C)c1CN(Cc1nc(CCC(C)C)no1)C(C)C", "hERG current change (%, negative = inhibition) at 10uM": 13}, {"smiles": "CCCN1Cc2cccc(C(=O)Nc3ccc4c(c3)OCO4)c2C1=O", "hERG current change (%, negative = inhibition) at 10uM": 0.165}, {"smiles": "O=C(Cc1ccccc1)Nc1c(Cl)ccc2nsnc12", "hERG current change (%, negative = inhibition) at 10uM": -2.82}, {"smiles": "COc1ccc(S(=O)(=O)N(CC(=O)N2CCOCC2)Cc2ccccc2)cc1", "hERG current change (%, negative = inhibition) at 10uM": -16.5}, {"smiles": "O=Nc1ccc(O)c2ncccc12", "hERG current change (%, negative = inhibition) at 10uM": 1.37}, {"smiles": "COC(=O)c1nn(-c2ccccc2)c(Sc2ccc(OC)cc2)c1/C=N/O", "hERG current change (%, negative = inhibition) at 10uM": -1.84}, {"smiles": "O=C(COC(=O)/C=C/c1ccccc1Cl)NCCNC(=O)COC(=O)/C=C/c1ccccc1Cl", "hERG current change (%, negative = inhibition) at 10uM": 8.67}, {"smiles": "COc1cccc(C(=O)OCCN2CCOCC2)c1.Cl", "hERG current change (%, negative = inhibition) at 10uM": 6.33}]}]}
